Experimental data: the supplement of paper PMC8047034
Structures can show the parent of a compound that is named as a salt. The list shows a part of the results. Repeats are few or missing, and single values can be far off.

Test system: OVCAR4
Experiment: log2 surviving fraction (library drug vs vehicle, or drug + carboplatin vs carboplatin alone; relative to plate median); ovarian cancer lines: OVCAR4 is platinum-sensitive and Ov4Carbo platinum-resistant; higher = more cell survival
Settings: library drug concentration 10 µM; 7 days; carboplatin co-treatment 0 µM

Row | Structure (SMILES) | log2 surviving fraction
1 | CC(=O)NS(=O)(=O)c1ccc(N)cc1 [sulfacetamide sodium] | -0.476
2 | N=C(N)NC(=O)c1nc(Cl)c(N)nc1N [Amiloride hydrochloride (Midamor)] | -0.212
3 | C[C@@H]1C/C=C/C=C/C=C/C=C/[C@H](O[C@@H]2O[C@H](C)[C@@H](O)[C@H](N)[C@@H]2O)C[C@@H]2O[C@](O)(C[C@@H](O)C[C@H]3O[C@@H]3/C=C/C(=O)O1)C[C@H](O)[C@H]2C(=O)O [Natamycin (Pimaricin)] | 0.736
4 | NC1CCN(c2c(F)cc3c(=O)c(C(=O)O)cn(C4CC4)c3c2Cl)C1 (centres undefined) | -0.595
5 | Clc1ccc(CSC(Cn2ccnc2)c2ccc(Cl)cc2Cl)cc1 (centres undefined) [Sulconazole Nitrate] | -2.06

Same assay, conditions: library drug concentration 10 µM; 7 days; carboplatin co-treatment 5 µM

Row | Structure (SMILES) | log2 surviving fraction
6 | CCCC(=O)OCOC(=O)C1=C(C)NC(C)=C(C(=O)OC)C1c1cccc(Cl)c1Cl (centres undefined) [Cleviprex (Clevidipine)] | 0.19
7 | C=CCOc1ccccc1OCC(O)CNC(C)C (centres undefined) [Oxprenolol HCl] | -0.527
8 | Cc1ccc(C(=O)c2cc(O)c(O)c([N+](=O)[O-])c2)cc1 [Tolcapone] | 0.527
9 | C[C@H]1COc2c(N3CCN(C)CC3)c(F)cc3c(=O)c(C(=O)O)cn1c23 [Levofloxacin (Levaquin)] | -1.24
10 | Cc1cccc([C@H](C)c2c[nH]cn2)c1C [Dexmedetomidine HCl (Precedex)] | -0.45
11 | CN1CCC(=C2c3ccccc3CCc3cccnc32)CC1 [Azatadine dimaleate] | -0.715
12 | CC(C)C(=O)Oc1ccc(CO)cc1[C@H](CCN(C(C)C)C(C)C)c1ccccc1 [Fesoterodine fumarate (Toviaz)] | 0.655
13 | O=P(O)(O)C(Cl)(Cl)P(=O)(O)O [Clodronate Disodium] | 0.989
14 | CC[C@H]1OC(=O)[C@H](C)[C@@H](O[C@H]2C[C@@](C)(OC)[C@@H](O)[C@H](C)O2)[C@H](C)[C@@H](O[C@@H]2O[C@H](C)C[C@H](N(C)C)[C@H]2O)[C@](C)(O)C[C@@H](C)CN(C)[C@H](C)[C@@H](O)[C@]1(C)O [Azithromycin Dihydrate] | 0.341
15 | CNC(=O)Oc1ccc2c(c1)[C@]1(C)CCN(C)[C@@H]1N2C [Physostigmine Hemisulfate Salt] | 0.68
16 | CCOC(=O)CC(=O)N1CCSC1COc1ccccc1OC (centres undefined) [Moguisteine] | 1.21
17 | O=C(Nc1ccc([N+](=O)[O-])cc1Cl)c1cc(Cl)ccc1O [Niclosamide (Niclocide)] | -7.46
18 | CCCC1O[C@@H]2C[C@H]3[C@@H]4CCC5=CC(=O)C=C[C@]5(C)[C@H]4[C@@H](O)C[C@]3(C)[C@]2(C(=O)CO)O1 (some centres undefined) [Budesonide] | 0.968
19 | COC(=O)[C@H]1[C@H]2C[C@@H]3c4[nH]c5cc(OC)ccc5c4CCN3C[C@H]2C[C@@H](OC(=O)c2cc(OC)c(OC)c(OC)c2)[C@@H]1OC [Reserpine] | -1.93
20 | CC(C(=O)O)c1ccc(C(=O)c2cccs2)cc1 (centres undefined) [Suprofen (Profenal)] | -2.17
21 | Cc1ccc(C(=O)Nc2ccc(CN3CCN(C)CC3)c(C(F)(F)F)c2)cc1C#Cc1cnc2cccnn12 | -7.71
22 | CCCCOc1ccc(C(=O)CCN2CCCCC2)cc1 [Dyclonine HCl] | -0.00631
23 | CN(C)CCCN1c2ccccc2CCc2ccccc21 [Imipramine HCl] | -1.49
24 | Nc1nc(N)nc(-c2cc(Cl)ccc2Cl)n1 [Irsogladine] | 0.203
25 | CN1C(C(=O)Nc2ccccn2)=C(O)c2ccccc2S1(=O)=O [Piroxicam (Feldene)] | 0.00714

Row | Structure (SMILES) | log2 surviving fraction
26 | Cc1cc(-n2c(=O)[nH]c(=O)n(C)c2=O)ccc1Oc1ccc(SC(F)(F)F)cc1 [toltrazuril] | 0.0736
27 | Cc1cc2c(cc1S(N)(=O)=O)S(=O)(=O)CCC2 [Meticrane] | 0.546
28 | CC(=O)Nc1ncc([N+](=O)[O-])s1 [Nithiamide] | 1.59
29 | [O-][n+]1cccc(CO)c1 [Mepiroxol] | 0.0328
30 | O=P1(N(CCCl)CCCl)NCCCO1 (centres undefined) [Cyclophosphamide monohydrate] | 0.0944
31 | c1ccc2[nH]c(-c3cscn3)nc2c1 [Thiabendazole] | 0.393
32 | [O-][n+]1ccccc1[S-].[O-][n+]1ccccc1[S-].[Zn+2] [Pyrithione zinc] | -6.9
33 | C[C@@H](O)[C@H]1C(=O)N2C(C(=O)[O-])=C(SC3Cn4cnc[n+]4C3)[C@H](C)[C@H]12 (some centres undefined) [Biapenem] | 0.228
34 | COc1cc2nc(N(C)CCCNC(=O)C3CCCO3)nc(N)c2cc1OC (centres undefined) [Alfuzosin hydrochloride (Uroxatral)] | -1.96
35 | C=CCc1cc(OC)c(O)c(C(=O)NCCO)c1 [Alibendol] | 1.01
36 | CCOC(=O)c1c(C)n(C)c2ccc(O)cc12 [Mecarbinate] | 1.59
37 | CN1[C@@H]2CC[C@H]1C[C@@H](OC(c1ccccc1)c1ccccc1)C2 [Benztropine mesylate] | -1.85
38 | CC(C)C[C@H](NC(=O)[C@@H](O)[C@H](N)Cc1ccccc1)C(=O)O [Ubenimex (Bestatin)] | -0.042
39 | CC(C)(C)c1ccc(C(O)CCCN2CCC(C(O)(c3ccccc3)c3ccccc3)CC2)cc1 (centres undefined) [Terfenadine] | -2.29
40 | CC(=O)NS(=O)(=O)c1ccc(N)cc1 [sulfacetamide sodium] | -0.402
41 | N=C(N)NC(=O)c1nc(Cl)c(N)nc1N [Amiloride hydrochloride (Midamor)] | -0.0101
42 | C[C@@H]1C/C=C/C=C/C=C/C=C/[C@H](O[C@@H]2O[C@H](C)[C@@H](O)[C@H](N)[C@@H]2O)C[C@@H]2O[C@](O)(C[C@@H](O)C[C@H]3O[C@@H]3/C=C/C(=O)O1)C[C@H](O)[C@H]2C(=O)O [Natamycin (Pimaricin)] | -0.311
43 | NC1CCN(c2c(F)cc3c(=O)c(C(=O)O)cn(C4CC4)c3c2Cl)C1 (centres undefined) | -0.221
44 | Clc1ccc(CSC(Cn2ccnc2)c2ccc(Cl)cc2Cl)cc1 (centres undefined) [Sulconazole Nitrate] | -1.62
